From ChEMBL document CHEMBL1133677, “Carbonic anhydrase and matrix metalloproteinase inhibitors: sulfonylated amino acid hydroxamates with MMP inhibitory properties act as efficient inhibitors of CA isozymes I, II, and IV, and N-hydroxysulfonamides inhibit both these zinc enzymes” (J Med Chem, 2000)
pKi: −log10 of the molar value.

Columns and labels:
[1] = molecular target: Matrix metalloproteinase-9 (Homo sapiens, UniProt P14780)
Neutrophil collagenase = Neutrophil collagenase (Homo sapiens, UniProt P22894)
Neutrophil collagenase, sequence (P22894 whole entry): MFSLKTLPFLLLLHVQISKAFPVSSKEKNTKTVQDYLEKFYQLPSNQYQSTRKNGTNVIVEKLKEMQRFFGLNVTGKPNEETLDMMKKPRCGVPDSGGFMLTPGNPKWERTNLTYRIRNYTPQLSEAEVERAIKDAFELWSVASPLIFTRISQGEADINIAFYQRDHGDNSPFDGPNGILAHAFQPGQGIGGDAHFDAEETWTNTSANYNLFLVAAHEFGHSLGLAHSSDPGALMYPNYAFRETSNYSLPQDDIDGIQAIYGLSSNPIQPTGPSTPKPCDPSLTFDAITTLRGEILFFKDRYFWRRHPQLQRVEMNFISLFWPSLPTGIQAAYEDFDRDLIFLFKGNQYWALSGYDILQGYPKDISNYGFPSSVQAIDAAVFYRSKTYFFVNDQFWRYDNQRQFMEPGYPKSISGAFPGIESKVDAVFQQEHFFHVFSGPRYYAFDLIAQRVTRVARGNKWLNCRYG

Interstitial collagenase = molecular target: T1, Interstitial collagenase (Homo sapiens, UniProt P03956)
T1 sequence (P03956 whole entry): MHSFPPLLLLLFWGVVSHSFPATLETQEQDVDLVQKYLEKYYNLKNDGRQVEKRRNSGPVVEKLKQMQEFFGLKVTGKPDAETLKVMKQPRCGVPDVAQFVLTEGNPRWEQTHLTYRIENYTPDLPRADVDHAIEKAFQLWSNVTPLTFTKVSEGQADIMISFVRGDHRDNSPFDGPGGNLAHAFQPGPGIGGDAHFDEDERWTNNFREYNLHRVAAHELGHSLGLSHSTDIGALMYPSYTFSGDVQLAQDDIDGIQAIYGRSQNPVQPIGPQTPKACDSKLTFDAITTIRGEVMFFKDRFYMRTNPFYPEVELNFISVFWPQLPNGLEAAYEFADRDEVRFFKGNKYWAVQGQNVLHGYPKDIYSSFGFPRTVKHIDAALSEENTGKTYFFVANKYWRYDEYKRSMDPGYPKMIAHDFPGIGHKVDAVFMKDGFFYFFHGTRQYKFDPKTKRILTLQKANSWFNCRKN

[2] = molecular target: 72 kDa type IV collagenase (Homo sapiens, UniProt P08253)
72 kDa type IV collagenase, sequence (P08253 whole entry): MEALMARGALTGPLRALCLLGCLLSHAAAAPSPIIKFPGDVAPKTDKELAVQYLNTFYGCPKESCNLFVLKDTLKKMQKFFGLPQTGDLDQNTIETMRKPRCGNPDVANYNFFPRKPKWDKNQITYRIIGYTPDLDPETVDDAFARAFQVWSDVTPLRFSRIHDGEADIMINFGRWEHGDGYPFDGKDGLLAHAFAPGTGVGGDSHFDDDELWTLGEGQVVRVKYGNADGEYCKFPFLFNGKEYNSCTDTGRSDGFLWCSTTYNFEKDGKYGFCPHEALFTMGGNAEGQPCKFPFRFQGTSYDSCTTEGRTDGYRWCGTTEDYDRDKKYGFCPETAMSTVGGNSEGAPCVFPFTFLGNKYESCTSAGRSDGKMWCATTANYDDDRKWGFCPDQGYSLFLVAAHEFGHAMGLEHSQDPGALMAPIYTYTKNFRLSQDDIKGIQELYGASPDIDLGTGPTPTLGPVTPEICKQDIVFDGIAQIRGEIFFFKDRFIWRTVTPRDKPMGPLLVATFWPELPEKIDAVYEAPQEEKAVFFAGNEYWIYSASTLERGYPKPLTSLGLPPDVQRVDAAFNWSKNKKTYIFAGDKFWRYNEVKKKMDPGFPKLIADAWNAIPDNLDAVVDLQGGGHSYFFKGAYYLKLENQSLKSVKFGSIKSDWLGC

Carbonic anhydrase 1 = Carbonic anhydrase 1 (Homo sapiens, UniProt P00915)
Carbonic anhydrase 1, sequence (P00915 whole entry): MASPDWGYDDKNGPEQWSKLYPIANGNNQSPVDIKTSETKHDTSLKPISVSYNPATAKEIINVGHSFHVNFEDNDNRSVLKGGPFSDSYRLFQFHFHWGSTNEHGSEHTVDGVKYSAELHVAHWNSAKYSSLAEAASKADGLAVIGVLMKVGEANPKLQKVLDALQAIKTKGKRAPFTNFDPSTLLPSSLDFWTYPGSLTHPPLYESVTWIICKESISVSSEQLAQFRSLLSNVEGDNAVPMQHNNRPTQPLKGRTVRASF

Matrix metalloproteinase-9, sequence (P14780 whole entry): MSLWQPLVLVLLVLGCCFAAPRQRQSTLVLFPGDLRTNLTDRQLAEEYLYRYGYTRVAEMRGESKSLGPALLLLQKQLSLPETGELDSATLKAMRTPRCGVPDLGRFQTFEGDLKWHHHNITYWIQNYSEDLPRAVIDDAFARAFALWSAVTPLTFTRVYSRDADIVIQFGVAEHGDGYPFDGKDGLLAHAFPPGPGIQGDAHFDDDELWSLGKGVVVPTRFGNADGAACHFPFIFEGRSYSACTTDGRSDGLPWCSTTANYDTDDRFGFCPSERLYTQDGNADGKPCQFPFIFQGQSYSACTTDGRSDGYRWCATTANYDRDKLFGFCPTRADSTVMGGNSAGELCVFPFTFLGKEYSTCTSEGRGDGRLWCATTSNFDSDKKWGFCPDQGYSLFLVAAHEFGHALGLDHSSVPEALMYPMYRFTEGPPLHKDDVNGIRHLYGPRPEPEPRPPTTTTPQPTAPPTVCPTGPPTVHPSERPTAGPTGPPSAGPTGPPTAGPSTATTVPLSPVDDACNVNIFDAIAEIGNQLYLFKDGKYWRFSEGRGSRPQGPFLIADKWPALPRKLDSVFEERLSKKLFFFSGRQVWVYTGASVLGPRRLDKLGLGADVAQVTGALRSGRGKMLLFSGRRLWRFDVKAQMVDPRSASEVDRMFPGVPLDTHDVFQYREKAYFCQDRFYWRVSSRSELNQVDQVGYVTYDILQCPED

O=[N+]([O-])c1cccc(S(=O)(=O)NO)c1
pKi [1]: 4.89
pKi (Neutrophil collagenase): 4.80
pKi (Interstitial collagenase): 4.43
pKi [2]: 4.64

O=S(=O)(NO)C(F)(F)C(F)(F)C(F)(F)C(F)(F)C(F)(F)C(F)(F)C(F)(F)C(F)(F)F
pKi [1]: 4.68
pKi (Neutrophil collagenase): 4.64
pKi (Interstitial collagenase): 4.15
pKi [2]: 4.85

COc1ccc(S(=O)(=O)NO)cc1
pKi [1]: 4.92
pKi (Neutrophil collagenase): 4.80
pKi (Interstitial collagenase): 4.48
pKi [2]: 4.85

CC(=O)Nc1ccc(S(=O)(=O)NO)cc1
pKi [1]: 5.00
pKi (Neutrophil collagenase): 4.92
pKi (Interstitial collagenase): 4.54
pKi [2]: 5.05

O=S(=O)(NO)C(Cl)(Cl)Cl
pKi [1]: < 4.00
pKi (Neutrophil collagenase): < 4.00
pKi (Interstitial collagenase): < 4.00
pKi [2]: < 4.00

O=S(=O)(NO)c1ccc(Cl)cc1
pKi [1]: 4.12
pKi (Neutrophil collagenase): 4.15
pKi (Interstitial collagenase): 4.15
pKi [2]: 4.15

CN(C)S(=O)(=O)NO
pKi [1]: < 4.00
pKi (Neutrophil collagenase): < 4.00
pKi (Interstitial collagenase): < 4.00
pKi [2]: < 4.00

O=S(=O)(NO)C(F)(F)F
pKi [1]: < 4.00
pKi (Neutrophil collagenase): < 4.00
pKi (Interstitial collagenase): < 4.00
pKi [2]: < 4.00

O=S(=O)(NO)c1ccc(F)cc1
pKi [1]: 4.14
pKi (Neutrophil collagenase): 4.12
pKi (Interstitial collagenase): 4.13
pKi [2]: 4.14

O=S(=O)(NO)c1cccc(C(F)(F)F)c1
pKi [1]: 5.77
pKi (Neutrophil collagenase): 5.82
pKi (Interstitial collagenase): 6.05
pKi [2]: 6.92

O=S(=O)(Cc1ccccc1)NO
pKi [1]: 4.08
pKi (Neutrophil collagenase): 4.12
pKi (Interstitial collagenase): 4.02
pKi [2]: 4.14

O=C(O)c1ccccc1S(=O)(=O)NO
pKi [1]: 7.00
pKi (Neutrophil collagenase): 6.92
pKi (Interstitial collagenase): 7.10
pKi [2]: 7.05

CS(=O)(=O)NO
pKi [1]: < 7.00
pKi (Neutrophil collagenase): < 7.00
pKi (Carbonic anhydrase 1): < 7.00
pKi (Interstitial collagenase): < 7.00
pKi [2]: < 7.00
